Data as given in paper PMC10385824, “Antiproliferative and Tubulin-Destabilising Effects of 3-(Prop-1-en-2-yl)azetidin-2-Ones and Related Compounds in MCF-7 and MDA-MB-231 Breast Cancer Cells” (Pharmaceuticals, 2023).

Key:
[1] = HPLC stability under degradation conditions (acid, alkali, heat, light, oxidation); settings: % Remaining
[2] = tested on: HL-60 human leukaemia cell line; assay: cell viability assay; assay type: cell-based; settings: read-out: IC50
Description: (§1) Cells were grown in 96-well plates and treated with (A) CA-4 or (B) β-lactam compound 9q at 0.001–50 μM for 72 h. Cell viability was expressed as a percentage of vehicle control (ethanol 1% (v/v))-treated cells. The values represent the mean ± S.E.M. for three independent experiments performed in triplicate.
(§2) HL-60 cells were originally obtained from the ECACC.

[3] = tested on: SW-480 colon adenocarcinoma cell line; assay: cell viability assay; assay type: cell-based; settings: Homo sapiens, SW480; SW-480; read-out: IC50
Description: as §1, §2

| Compound | remaining at 4 h ([1]; 1M HCl added to stock solution, 1M HCl (0.1 mL, 20 °C, 4h)) [%] | remaining at 4 h ([1]; 1M HCl added to stock solution, 1M HCl (0.2 mL, 50 °C, 4h)) [%] | remaining at 4 h ([1]; 1M NaOH added to stock solution, 1M NaOH (0.1 mL, 20 °C, 4h)) [%] | remaining at 4 h ([1]; 1M NaOH added to stock solution, 1M NaOH (0.2 mL, 50 °C, 4h)) [%] | remaining at 6 h ([1]; 30% H2O2 added to stock solution, Hydrogen peroxide (30 % H2O2, 0.2 mL), 20 °C, 6h) [%] | remaining at 312 h, 0.5 mg/mL ([1]; solution in acetonitrile:water 80:20, daylight, Daylight (acetonitrile (80%):water (20%) 13 days)) [%] | remaining at 5 h, 0.5 mg/mL ([1]; stock solution in acetonitrile:water 80:20, heated, 80 °C (heating block, 5 h)) [%] | IC50 [2] [nM] | IC50 [3] [nM] |
| --- | --- | --- | --- | --- | --- | --- | --- | --- | --- |
| C=CCC1C(=O)N(c2cc(OC)c(OC)c(OC)c2)C1c1ccc(OC)c(O)c1 (stereo not drawn) [10p, 4-(3-Hydroxy-4-methoxyphenyl)-1-(3,4,5-trimethoxyphenyl)-3-allylazetidin-2-one] | 91.3 | 91.3 | 95.2 | 82.1 | 79 | 100 | 100 |  |  |
| COc1ccc(/C=C\c2cc(OC)c(OC)c(OC)c2)cc1O [CA-4, Combretastatin A-4, reference compound] |  |  |  |  |  |  |  | 2 | 7 |
